# Measurements reported in paper PMC4336329 (PLoS ONE, 2015).
# Among all 310,000 compounds or so, about 2,200 (0.71%) showed an effect of 50% or more. Effects have a minus sign here. The list shows a part of the results.
# Target: human ether-à-go-go-related gene (hERG) potassium channel (human, UniProt Q12809)
# Test: primary screen, population patch clamp on CHO cells stably expressing hERG
# human ether-à-go-go-related gene (hERG) potassium channel, sequence (Q12809 whole entry, looked up): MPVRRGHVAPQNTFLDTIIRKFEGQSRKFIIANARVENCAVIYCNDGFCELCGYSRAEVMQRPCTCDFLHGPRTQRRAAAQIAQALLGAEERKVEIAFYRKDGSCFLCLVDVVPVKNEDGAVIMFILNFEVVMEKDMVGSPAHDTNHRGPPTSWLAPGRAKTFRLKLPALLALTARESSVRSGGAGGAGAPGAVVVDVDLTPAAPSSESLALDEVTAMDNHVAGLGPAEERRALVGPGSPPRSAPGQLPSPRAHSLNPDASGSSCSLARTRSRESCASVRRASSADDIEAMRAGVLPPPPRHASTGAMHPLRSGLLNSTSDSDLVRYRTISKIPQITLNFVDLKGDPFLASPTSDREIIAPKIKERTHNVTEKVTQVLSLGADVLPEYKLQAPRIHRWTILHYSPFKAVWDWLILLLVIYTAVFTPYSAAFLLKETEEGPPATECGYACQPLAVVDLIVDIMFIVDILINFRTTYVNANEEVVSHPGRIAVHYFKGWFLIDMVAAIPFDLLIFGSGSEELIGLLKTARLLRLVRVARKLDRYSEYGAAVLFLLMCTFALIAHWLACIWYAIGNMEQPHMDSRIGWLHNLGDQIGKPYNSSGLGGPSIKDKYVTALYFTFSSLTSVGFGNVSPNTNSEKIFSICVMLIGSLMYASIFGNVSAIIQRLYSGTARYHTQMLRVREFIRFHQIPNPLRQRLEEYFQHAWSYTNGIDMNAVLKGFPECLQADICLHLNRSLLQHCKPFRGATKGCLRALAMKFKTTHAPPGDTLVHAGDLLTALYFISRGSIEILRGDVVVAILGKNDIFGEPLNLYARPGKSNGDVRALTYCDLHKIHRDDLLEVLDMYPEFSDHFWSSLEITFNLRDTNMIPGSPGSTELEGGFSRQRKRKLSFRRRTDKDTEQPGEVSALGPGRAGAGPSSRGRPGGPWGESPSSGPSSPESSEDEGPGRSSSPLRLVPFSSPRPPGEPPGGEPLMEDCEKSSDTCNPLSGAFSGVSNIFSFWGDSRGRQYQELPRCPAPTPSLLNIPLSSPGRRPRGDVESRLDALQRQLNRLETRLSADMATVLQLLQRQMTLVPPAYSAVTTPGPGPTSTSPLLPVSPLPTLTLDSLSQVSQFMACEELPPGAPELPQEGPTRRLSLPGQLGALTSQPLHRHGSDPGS
row,Structure (SMILES),"hERG current change (%, negative = inhibition) at 1uM [%]"
1,CC1CCC(N2CCN(c3ccc([N+](=O)[O-])cc3)CC2)CC1 (stereo not shown),-67.8
2,CC(=O)Nc1ccc2nc(NC(=O)COc3ccccc3C)sc2c1,7.46
3,Cl.O=S(=O)(NCCN1CCOCC1)c1ccc(Cl)s1,5.93
4,O=C(CCN1CCOCC1)c1ccc(N2CCCCC2)cc1.[Br-],10.1
5,CN1CCc2c(OCc3ccc(F)cc3)cccc2C1=O,5.61
6,CC(C)(C)c1ccc(NC(=O)N2CCN(c3ccc([N+](=O)[O-])cn3)CC2)cc1,10.7
7,Cc1ccc(CN(Cc2cccnc2)C(=S)Nc2cccc(Cl)c2C)cc1,7.22
8,CC1CC(C)CN(C(=O)CCC(=O)Nc2nnc(C(C)C)s2)C1 (stereo not shown),12.4
9,Cc1nnsc1NC(=O)OCc1ccc(C(F)(F)F)cc1,1.79
10,COc1cccc(OCc2nnc(SCC(=O)NCc3ccco3)n2CCc2ccccc2)c1,-6.59
11,O=C(NCCOc1ccccc1)C1CCC(=O)N(CCN2CCOCC2)C1 (stereo not shown),15.7
12,O=C(C[n+]1ccc(/C=C/c2ccccc2)cc1)c1ccc2c(c1)OCCO2.[Br-],2.08
13,Cc1c(C(=O)N2CCN(c3ncccn3)CC2)sc2nc3n(c(=O)c12)CCCC3,17.6
14,Cn1c(=O)[nH]c(=O)c2c1nc(CN1CCN(c3ccc(F)cc3)CC1)n2CCN1CCOCC1,-0.139
15,CCN(CC)C(=O)c1sc(NC(=O)Cc2ccccc2)c(C#N)c1C,2.35
16,O=C(Cn1nnc(-c2ccccc2)n1)Nc1cccc(S(=O)(=O)N2CCCC2)c1,15.3
17,NC(=O)CSc1nc2c(sc(=S)n2-c2ccccc2)c(=O)[nH]1,14.7
18,COc1ccc(C)cc1NC(=O)CCCN1C(=O)CN(C)C1=O,-0.631
19,CC1(C)CC(=O)C2=C(C1)OC(N)=C(C#N)C21C(=O)N(CN2CCOCC2)c2ccccc21 (stereo not shown),11.2
20,CCn1c(SCC(=O)NNC(=O)c2ccc(OC)cc2)nnc1-c1cccnc1,8.01
21,Oc1ccccc1-c1nc(N2CCCC2)c2ccccc2n1,2.36
22,CCOC(=O)c1ccc(S(=O)(=O)N2CCN(S(=O)(=O)CC)CC2)cc1,12.9
23,Clc1cccc(Cl)c1Cn1nnc(N2CCCC2)n1,11.9
24,CSc1ncc(CN2CCN(C3CCCCC3)C(CCO)C2)cn1 (stereo not shown),10.3
25,COc1cc(NC(=O)CN2CCC(Cc3ccccc3)CC2)c(C)cc1[N+](=O)[O-],12.9
26,Nc1nc(CSc2n[nH]c(-c3ccccc3)n2)nc(Nc2ccccc2)n1,2.91
27,Cc1ccc(NC(=O)c2ccc3c(c2)CCN3S(C)(=O)=O)c(C)c1,0.297
28,COc1ccc(C2C(=O)N(C3CCCCC3)CC(=O)N2C2CCCC2)cc1 (stereo not shown),9.07

row,Structure (SMILES),"hERG current change (%, negative = inhibition) at 1uM [%]"
1,Cc1c(NC(=O)C(C)OC(=O)c2cc(-c3cccc4ccccc34)nc3ccccc23)c(=O)n(-c2ccccc2)n1C (stereo not shown),2.63
2,Cc1cc(NC(=O)CSc2ccc3nnc(-c4cccs4)n3n2)no1,-0.551
3,O=C1CC(NN2CCCCC2)C(=O)N1c1ccccc1 (stereo not shown),9.34
4,COc1cccc(-n2c(-c3ccccc3)c[nH]c2=S)c1,13.1
5,O=C(CSCc1nc2ccccc2[nH]1)N1CCN(c2cccc(Cl)c2)CC1,1.28
6,Cc1nc2nc(C)c(NS(=O)(=O)c3ccc(Cl)s3)c(=O)n2[nH]1,9.5
7,O=C1CC(=O)N(c2cccc(Cl)c2)C(=O)N1,12.8
8,CC(C)C(=O)Nc1nnc(CCN2CCCCC2)s1,3.78
9,COc1cccc(-n2cc(CN(C)Cc3nc(Cc4ccccc4)no3)cn2)c1,-14.2
10,COc1ccc(-c2cc(=O)oc3c(C)c(OCC(=O)NCCCn4ccnc4)ccc23)cc1,-8.49
11,C[C@H](NC(=O)OCc1ccccc1)C(=O)NNC(=O)[C@H](Cc1ccccc1)NC(=O)OC(C)(C)C,17.1
12,CCN(CC)C(=O)N1CCC(NC(=O)c2ccccc2)CC1,7.42
13,COc1ccc(-n2nc(C(=O)NCC(=O)NCCCN3CCOCC3)c3ccccc3c2=O)c(OC)c1,19.7
14,Cc1ccc2[nH]c3c(=O)n(CC(=O)N4CC(C)CC(C)C4)ncc3c2c1 (stereo not shown),9.13
15,Cc1ccc(C(=O)N/C(=C\c2ccc(F)cc2)C(=O)NCCCn2ccnc2)cc1,-85.1
16,NC(=O)c1ccsc1NC(=O)COC(=O)c1ccccn1,3.79
17,CC1CCN(CCCNC(=O)CCNC(=O)Cn2cnc3ccccc3c2=O)CC1,16.6
18,O=C(CC1C(=O)NCCN1Cc1c(F)cccc1Cl)NCCC1=CCCCC1 (stereo not shown),1.36
19,COc1cc(-c2c(-c3cccc(C)c3)oc3ccccc23)cc(OC)c1OC,17
20,COc1ccc(N2C(=O)C(Cl)=C(Nc3ccccc3OC)C2=O)cc1,2.56
21,Cc1ccc(NC(=O)c2ccc(F)c(S(=O)(=O)N3CCOCC3)c2)cc1F,-1.44
22,Cc1cccc(COCC(Cc2ccccc2)N2CCN(C(=O)c3ccc(Cl)c(Cl)c3)CCC2=O)c1 (stereo not shown),-4.09
23,CC(=O)c1c(C(C)=O)c(C)n(-c2nc(-c3ccccc3)c(C)s2)c1C,5.27
24,O=C(CSc1ccc2nnc(-c3ccccn3)n2n1)N1CCOCC1,6.32
25,COC(=O)c1c(-c2ccccc2)c[nH]c1C,12.3
26,CCn1c(C)nc2cc(C(=O)OCCC(F)(F)F)ccc21,-3.16
27,CCC(C)NC(=O)CSC1=Nc2ccccc2C2=NC(CC(=O)NCc3ccc(F)cc3)C(=O)N12 (stereo not shown),-2.33
